Laboratory results reported in patent US20260109747A1 (ASCENDIS PHARMA ONCOLOGY DIVISION A S, published 2026).
Values belong to the binder of their own block, whether it stands above or below them.

Key:
[1] = target: T1, human IL-2Rα-Fc (human, UniProt P01589 22-213, limits assumed); test: SPR (Biacore), analyte injected onto human IL-2Rα-Fc coated sensor chip
T1 construct: Coated on the Biacore sensor chip; also called CD25; not shown: Fc part
T1 sequence (looked up): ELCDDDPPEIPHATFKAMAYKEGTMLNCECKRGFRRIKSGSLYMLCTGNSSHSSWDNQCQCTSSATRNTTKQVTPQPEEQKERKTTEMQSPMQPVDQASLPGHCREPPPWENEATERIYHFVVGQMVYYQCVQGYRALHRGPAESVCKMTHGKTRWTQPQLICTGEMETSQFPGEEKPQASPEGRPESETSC

[2] = target: T2, human IL-2Rβ-Fc (human, UniProt P14784 27-239, limits assumed); test: SPR (Biacore), analyte injected onto human IL-2Rβ-Fc coated sensor chip
T2 construct: Coated on the Biacore sensor chip; also called CD122; not shown: Fc part
T2 sequence (looked up): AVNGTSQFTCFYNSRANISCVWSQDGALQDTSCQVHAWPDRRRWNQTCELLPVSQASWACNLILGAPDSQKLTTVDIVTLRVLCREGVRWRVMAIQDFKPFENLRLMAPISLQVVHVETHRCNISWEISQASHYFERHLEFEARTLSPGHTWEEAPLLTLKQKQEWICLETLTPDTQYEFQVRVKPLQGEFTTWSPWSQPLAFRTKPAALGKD

[3] = target: T3, human IL-2Rβ/γ (human, UniProt P14784 27-551; P31785 23-369); test: cell-based or functional assay
T3 sequence (looked up) 1: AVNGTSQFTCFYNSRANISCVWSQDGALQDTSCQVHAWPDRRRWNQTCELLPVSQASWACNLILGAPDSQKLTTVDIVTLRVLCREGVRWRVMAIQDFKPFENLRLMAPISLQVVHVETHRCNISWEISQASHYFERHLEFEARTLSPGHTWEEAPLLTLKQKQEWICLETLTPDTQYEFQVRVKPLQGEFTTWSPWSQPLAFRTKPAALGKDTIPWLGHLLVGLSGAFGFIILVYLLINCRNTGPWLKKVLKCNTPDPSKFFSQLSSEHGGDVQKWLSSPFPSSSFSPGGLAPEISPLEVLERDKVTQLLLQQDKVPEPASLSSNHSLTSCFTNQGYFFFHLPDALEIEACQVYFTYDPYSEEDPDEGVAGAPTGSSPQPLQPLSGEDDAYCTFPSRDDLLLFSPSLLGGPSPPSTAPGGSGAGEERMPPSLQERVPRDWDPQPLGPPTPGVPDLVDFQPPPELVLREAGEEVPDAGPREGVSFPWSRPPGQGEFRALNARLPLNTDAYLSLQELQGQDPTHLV
T3 sequence (looked up) 2: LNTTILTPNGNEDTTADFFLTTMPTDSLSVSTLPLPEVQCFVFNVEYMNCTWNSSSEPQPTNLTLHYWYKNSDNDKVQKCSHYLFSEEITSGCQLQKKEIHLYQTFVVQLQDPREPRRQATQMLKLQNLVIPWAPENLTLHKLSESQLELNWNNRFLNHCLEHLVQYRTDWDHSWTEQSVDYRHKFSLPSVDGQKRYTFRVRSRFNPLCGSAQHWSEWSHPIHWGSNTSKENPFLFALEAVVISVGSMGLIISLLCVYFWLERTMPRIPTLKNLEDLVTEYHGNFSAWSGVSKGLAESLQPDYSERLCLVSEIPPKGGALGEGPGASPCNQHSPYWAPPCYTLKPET

[4] = target: T4, cynomolgus monkey IL-2Rβ/γ (cynomolgus monkey); test: cell-based or functional assay
T4 chain 1: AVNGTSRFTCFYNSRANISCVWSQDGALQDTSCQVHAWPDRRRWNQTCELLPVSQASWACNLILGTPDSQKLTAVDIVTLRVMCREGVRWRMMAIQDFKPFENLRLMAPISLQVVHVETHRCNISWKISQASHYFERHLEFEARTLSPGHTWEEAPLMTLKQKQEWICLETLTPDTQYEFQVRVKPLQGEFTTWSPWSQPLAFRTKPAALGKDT
T4 chain 2: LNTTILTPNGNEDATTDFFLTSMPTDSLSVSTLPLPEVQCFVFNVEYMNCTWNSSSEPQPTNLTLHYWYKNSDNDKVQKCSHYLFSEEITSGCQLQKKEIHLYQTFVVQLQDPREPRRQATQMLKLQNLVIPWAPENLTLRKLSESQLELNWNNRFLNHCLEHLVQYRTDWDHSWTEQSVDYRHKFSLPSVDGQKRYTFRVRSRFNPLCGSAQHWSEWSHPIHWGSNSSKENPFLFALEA

[5] = target: T4, cynomolgus monkey IL-2Rβ/γ; test: cell-based or functional assay

Kd [1]: 9.57 nM | Kd [2]: 450 nM | pSTAT5 EC50, HH cells [3]: 233 ng/ml
B1: unbiased control recombinant human IL-2, compound 12 (ligand)
chain: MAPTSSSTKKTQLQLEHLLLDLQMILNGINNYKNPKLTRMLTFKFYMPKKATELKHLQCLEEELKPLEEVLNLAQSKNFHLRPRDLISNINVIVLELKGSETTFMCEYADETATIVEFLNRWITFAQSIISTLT

pSTAT5 EC50, CD8, cynomolgus monkey whole blood [4]: 45.1 ng/mL | pSTAT5 EC50, NK, cynomolgus monkey whole blood [4]: 10.5 ng/mL | Fold Potency Loss vs Human (pSTAT5), CD8, cynomolgus monkey [5]: 1.76 fold | Fold Potency Loss vs Human (pSTAT5), NK, cynomolgus monkey [5]: 1.75 fold
B2: his-tagged mammalian expressed control human IL-2, compound 13 (ligand)
chain: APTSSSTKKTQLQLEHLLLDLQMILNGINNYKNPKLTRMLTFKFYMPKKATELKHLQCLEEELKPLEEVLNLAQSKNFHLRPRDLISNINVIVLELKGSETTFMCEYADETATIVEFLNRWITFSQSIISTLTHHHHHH
